35 compounds from the supplement of paper PMC9446081 can be followed below.

The campaign covered roughly 39,000 compounds. About 220 (0.56%) showed activity. The list shows a part of the results.
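Note: static incubation at 37 °C against the wild-type strain, values averaged over two biological replicates.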

The test concerns Escherichia coli K-12 BW25113. Put plainly: relative growth (OD600 normalised to plate interquartile mean) (fraction); higher = less growth inhibition, active = 0.2 or less. As to conditions: 50 µM; LB; incubation time: overnight (16-24 h).
As for `C[C@@H]1CN([C@H](C)CO)C(=O)c2cc(NC(=O)Nc3ccccc3)ccc2O[C@@H]1CN(C)C(=O)Nc1cccc2ccccc12`, the relative growth is inactive: 1.02.

With `C[C@H](NC(=O)N(C)C[C@H]1OCc2ccccc2-c2c(n(C)c3ccccc23)C(=O)N([C@@H](C)CO)C[C@@H]1C)c1ccccc1`, the relative growth is inactive: 0.996.

As to `C[C@@H]1CCCCO[C@@H](CN(C)C(=O)c2ccccc2)[C@@H](C)CN([C@@H](C)CO)C(=O)c2cc(NC(=O)c3ccccc3)ccc2O1`, the relative growth was inactive: 0.999.

For `CCS(=O)(=O)N[C@@H]1C=C[C@H](CC(=O)NCc2ccccn2)O[C@@H]1CO`, the relative growth is inactive: 0.999.

Turning to `CC12CC(OC1=O)C1(C)CCC3(C)C(=CCC4C5(C)CCC(O)C(C)(C)C5CCC43C)C1C2` (stereo not given), the relative growth is inactive: 1.03.

For `C[C@@H]1CN([C@H](C)CO)C(=O)c2cc(NS(=O)(=O)c3ccccc3)ccc2O[C@H]1CN(C)S(=O)(=O)c1ccccc1`, the relative growth was inactive: 1.03.

Take `C[C@H](CO)N1C[C@H](C)[C@@H](CN(C)S(=O)(=O)c2ccc(F)cc2)Oc2ccc(NS(=O)(=O)c3ccccc3)cc2C1=O`: the relative growth was inactive: 0.937.

Turning to `Cc1noc(C)c1NC(=O)N(C)C[C@@H]1Oc2c(NC(=O)c3ccc(-c4nccs4)cc3)cccc2C(=O)N([C@H](C)CO)C[C@H]1C`, the relative growth was inactive: 1.02.

In the case of `COc1ccc(NC(=O)N(C)C[C@H]2Oc3ncc(C#C[C@H](C)O)cc3C(=O)N([C@H](C)CO)C[C@H]2C)cc1`, the relative growth was inactive: 1.01.

As to `C[C@@H]1CN([C@@H](C)CO)C(=O)c2cc(NC(=O)Cc3cn(C)c4ccccc34)ccc2O[C@H]1CN(C)Cc1ccc(C(=O)Nc2ccccc2N)cc1`, the relative growth was inactive: 0.94.

For `Cc1ccc(S(=O)(=O)N(C)C[C@H]2Oc3ccc(NS(C)(=O)=O)cc3C(=O)N([C@H](C)CO)C[C@H]2C)cc1`, the relative growth was inactive: 1.01.

On to `Cc1noc(C)c1NC(=O)N(C)C[C@@H]1OCCCC[C@@H](C)Oc2ccc(NC(=O)Nc3ccccc3)cc2C(=O)N([C@@H](C)CO)C[C@@H]1C`, for which the relative growth was inactive: 0.975.

Turning to `CCOC(=O)[C@H]1C/C=C/C[C@H](C(=O)OCC)C(=O)O[C@H]2[C@@H](OC)O[C@H](CO)[C@@H](OC(=O)c3c(OC)cccc3OC)[C@@H]2OC1=O`, the relative growth is inactive: 1.01.

Take `C[C@H]1CN([C@@H](C)CO)C(=O)Cc2cc(NC(=O)Nc3ccccc3)ccc2O[C@H]1CN(C)Cc1ccc(C(=O)Nc2ccccc2N)cc1`: the relative growth was inactive: 0.978.

For the compound `C[C@H](CO)N1C[C@H](C)[C@H](CN(C)Cc2ccc(-c3ccccc3)cc2)Oc2ccc(NC(=O)CCCCCC(=O)Nc3ccccc3N)cc2CC1=O`, the relative growth is inactive: 1.03.

`Cc1[nH]c(=O)[nH]c(=O)c1S(=O)(=O)N1CCOCC1`: the relative growth was inactive: 0.954.

For the compound `CC(C)CN1C(=O)[C@@]2(Cc3ccccc31)c1ccccc1C(=O)N(Cc1ccccc1)[C@H]2c1ccc(CO)cc1`, the relative growth was inactive: 1.01.

With `COc1ccc(NC(=O)Nc2ccc3c(c2)C(=O)N([C@@H](C)CO)C[C@H](C)[C@H](CN(C)Cc2ccccc2)OCCCC[C@@H](C)O3)cc1`, the relative growth was inactive: 0.988.

Take `Cc1noc(C)c1S(=O)(=O)Nc1ccc2c(c1)CC(=O)N([C@H](C)CO)C[C@H](C)[C@H](CN(C)C(=O)Nc1ccc3c(c1)OCO3)O2`: the relative growth was inactive: 0.867.

`Cc1ccc(S(=O)(=O)Nc2ccc3c(c2)C(=O)N([C@@H](C)CO)C[C@H](C)[C@@H](CN(C)Cc2ccc(Cl)c(Cl)c2)O3)cc1`: the relative growth was inactive: 1.01.

As for `C[C@H](CO)N1C[C@H](C)[C@H](CN(C)C(=O)Cc2ccccc2)OCCCC[C@H](C)Oc2ccc(NC(=O)Nc3ccc(C(F)(F)F)cc3)cc2C1=O`, the relative growth is inactive: 0.993.

For the compound `C[C@@H]1CN([C@H](C)CO)C(=O)Cc2cc(NC(=O)Nc3ccc4c(c3)OCO4)ccc2O[C@H]1CN(C)Cc1ccc(Cl)c(Cl)c1`, the relative growth was inactive: 1.03.

As for `O=C(Nc1ccc(Cl)cc1C(=O)c1ccc(Cl)cc1)c1cc(Br)ccc1NS(=O)(=O)c1ccc(Cl)cc1`, the relative growth is inactive: 1.

Turning to `COc1ccc(S(=O)(=O)Nc2ccc3c(c2)CC(=O)N([C@H](C)CO)C[C@H](C)[C@H](CN(C)S(C)(=O)=O)O3)cc1`, the relative growth was inactive: 0.979.

Turning to `O=C(Cn1cnnn1)NC1C(=O)N2C(C(=O)O)=C(CSc3nncs3)CSC12` (stereo not given), the relative growth was active: 0.0457.

As to `C[C@H]1CN([C@@H](C)CO)C(=O)Cc2cc(NC(=O)Nc3ccc(C(F)(F)F)cc3)ccc2O[C@H]1CN(C)S(C)(=O)=O`, the relative growth is inactive: 0.976.

Regarding `C[C@@H]1CN([C@@H](C)CO)C(=O)Cc2cc(NC(=O)CCN3CCOCC3)ccc2O[C@H]1CN(C)S(=O)(=O)c1cccs1`, the relative growth was inactive: 1.05.

On to `COc1ccc(CN(C)C[C@@H]2Oc3ccc(NC(=O)Cn4cnnn4)cc3CC(=O)N([C@H](C)CO)C[C@H]2C)cc1`, for which the relative growth was inactive: 0.981.

Take `C[C@@H]1CN([C@@H](C)CO)C(=O)c2cc(NC(=O)NC3CCCCC3)ccc2O[C@@H](C)CCCCO[C@@H]1CN(C)C(=O)c1ccccc1`: the relative growth is inactive: 1.02.

Regarding `COCCCNC(=O)[C@@]1(Cc2ccccc2I)c2ccccc2C(=O)N(C2CCCCC2)[C@H]1c1ccc(CO)cc1`, the relative growth is inactive: 1.02.

On to `COCCOC(=O)N1C(=O)[C@@]2(c3ccccc31)[C@H](C(=O)Nc1nc3ccccc3s1)[C@H]1C(=O)O[C@H](c3ccccc3)[C@H](c3ccccc3)N1[C@@H]2c1ccccc1OCCO`, for which the relative growth is inactive: 1.03.

Take `COC(=O)[C@@]12CCC(C)(C)C[C@@H]1[C@@H]1C(=O)C=C3[C@]4(C)C=C(C#N)C(=O)C(C)(C)[C@H]4CC[C@]3(C)[C@@]1(C)CC2`: the relative growth is inactive: 0.981.

`COc1ccc(NC(=O)Nc2ccc3c(c2)C(=O)N([C@@H](C)CO)C[C@H](C)[C@@H](CN(C)S(=O)(=O)c2ccc(C)cc2)OCCCC[C@@H](C)O3)cc1`: the relative growth was inactive: 1.02.

For `C[C@@H]1CCCCO[C@@H](CN(C)C(=O)Nc2ccc(F)cc2)[C@H](C)CN([C@@H](C)CO)C(=O)c2cc(NC(=O)c3ccccc3)ccc2O1`, the relative growth was inactive: 1.01.

On to `Cc1noc(C)c1NC(=O)Nc1ccc2c(c1)C(=O)N([C@@H](C)CO)C[C@H](C)[C@H](CN(C)S(=O)(=O)c1cn(C)cn1)O2`, for which the relative growth was inactive: 0.996.
